According to ChEMBL document CHEMBL4888484, “Replenishing the malaria drug discovery pipeline: Screening and hit evaluation of the MMV Hit Generation Library 1 (HGL1) against asexual blood stage Plasmodium falciparum ,using a nano luciferase reporter read-out” (2022):
The campaign covered roughly 150,000 compounds. About 540 (0.36%) showed an effect of 50% or more. The list shows a part of the results.

Tested on: Plasmodium falciparum
Experiment: Primary screen in NF54 nanoGlo assay, in single point, at 2uM, 72h; a lower Z score goes with more inhibition
Assay type: functional, Erythrocyte
Conditions: timepoint 72 hour

| SMILES | % Inhibition [%] | Z score |
| --- | --- | --- |
| O=C(NCCN1C(=O)COC1=O)c1cccs1 | 12 | -2.12 |
| O[C@@H](CN1CCN(Cc2ccccc2F)CC1)C1CC1 | -5 | 0.97 |
| Brc1cnc(N2CCCN(c3ccncc3)CC2)nc1 | 22 | -2.55 |
| COCCOCC(=O)N1CCCCCc2ccccc21 | -2 | 0.26 |
| O=c1cc2c(nn1CN1CCN(c3ccccn3)CC1)CCC2 | 9 | -1.01 |
| COc1cccc(CNC(=O)Nc2ccncc2C)n1 | 1 | -0.08 |
| COCC(=O)NC[C@@H]1C[C@H](F)CN1C(=O)c1ccc2c(c1)OCCO2 | 8 | -1.49 |
| CN1CCC(n2ncc3c2NC(=O)C[C@@H]3c2cc(C#CCO)cs2)CC1 | -11 | 1.09 |
| O=C(NC[C@H]1CCN1C1CCOCC1)c1cc(F)c2ncccc2c1 | -9 | 0.96 |
| Cc1cc(C(=O)NCc2nccc(N)n2)sc1C | -10 | 1.73 |
| COCC1(NC(=O)Cc2ccc3[nH]c(C)nc3c2)CCCC1 | -6 | 1.06 |
| COc1cc(N2CCC(C(=O)O)(n3cnc4ccccc43)CC2)ncn1 | -6 | 0.75 |
| CO[C@H](CNc1ccccc1CS(C)(=O)=O)Cc1ccccc1 | -10 | 1.34 |
| COc1ccc(NC(=O)C2(N(Cc3ccco3)C(=O)CC3C(c4c(C)[nH]c5ccccc45)C3(C)C)CCN(C)CC2)cc1 (stereo not drawn) | -35 | 4.14 |
| O=C(NCCN1CCCCC1)[C@@]1(CCO)CCN(c2ncccn2)C1 | -11 | 2.15 |
| O=C(Cn1ccc2ccccc21)N1CC[C@@]2(CCCN(CC3CC3)C2=O)C1 | 0 | 0 |
| CCn1cc(CN(C)C(=O)c2cccc(-c3nc(OC)n(C)n3)c2)cn1 | -7 | 0.69 |
| N[C@H](C(=O)N1CCOc2ccc(Br)cc2C1)C1CCC1 | -12 | 1.09 |
| O=C(Cc1ccoc1)N1CC(=O)N(CC(F)(F)F)C1 | 2 | -0.26 |
| CN(C)c1nc2c(s1)[C@@H](c1cccc3cnccc13)CC(=O)NC2 | 11 | -1.95 |
| Cn1ccc(NC(=O)CN(CCc2c[nH]c3ccccc23)C2CCCCC2)n1 | -4 | 0.41 |

| SMILES | % Inhibition [%] | Z score |
| --- | --- | --- |
| CC(C)O[C@H]1CN(c2nc(-c3cccnc3)nc3c2cnn3C)C[C@@H]1O | 7 | -0.92 |
| Cn1c(C(=O)NCCN2CCCCC2)c(-c2ccc(Cl)cc2)c2cc(Cl)ccc21 | -1 | 0.11 |
| COc1cccc(-c2nc(C)c(C(=O)NCc3nnc4ccccn34)s2)c1 | -3 | 0.36 |
| O=C(COc1ccc(Cl)cc1)N1Cc2cncnc2C1 | -16 | 2.7 |
| O=C(CC1(N2Cc3ccccc3C2=O)CCOCC1)N1CCC[C@H](c2nnc3ccccn23)C1 | -8 | 0.99 |
| FC(F)n1nccc1-c1nnc(Nc2ccn(Cc3c(Cl)cccc3Cl)n2)s1 | -4 | 0.57 |
| CC(C)N(C(=O)c1ccnn1C(C)C)[C@H]1CCOC1 | 0 | -0.09 |
| O=C(CN1CCN(c2ccccc2F)CC1)c1ccc2c(c1)OCO2 | 33 | -4.84 |
| COc1ccc(C(Nc2ccnc(OC)c2C#N)[C@H]2C[C@H](O)C2)cn1 (stereo partly drawn) | 11 | -1.37 |
| CC[C@H](NCc1nnc(C)n1CC)c1nccs1 | -12 | 1.55 |
| Cc1ccc(CN(CCC(=O)N2CCOCC2)CCc2ccccc2)s1 | -2 | 0.2 |
| CCn1nnc2cc(C(=O)N3CCC[C@H]3c3ccc4c(c3)OCCO4)ccc21 | -41 | 4.78 |
| C[C@H]1CCCN1C(=O)c1ccc(S(=O)(=O)NC2CCOCC2)cc1 | -4 | 0.48 |
| Cn1ncc2c(N3CC[C@H](Oc4ccc(Cl)c(Cl)c4)C3)ncnc21 | -10 | 1.42 |
| Cn1cccc1C(=O)OCC[C@H]1CCCCN1C(=O)c1cccn1C | -16 | 1.5 |
| Cc1ccc(C)c(C2CCN(C(=O)[C@@H]3CC(=O)NC(=O)N3)CC2)c1 | 10 | -1.88 |
| N#CC(NC(=O)C1CNC(=O)C1)c1ccc(OCc2ccccc2)cc1 (stereo not drawn) | 4 | -0.63 |
| C[C@@H]1CC(=O)N[C@H](C(=O)NCc2ccncc2OCC(F)(F)F)C1 | -10 | 1.37 |
| CN(C(=O)[C@H]1C[C@@H]1C(F)F)C1CC(O)C1 (stereo partly drawn) | -10 | 1.06 |
| CC(NC(=O)OC(C)(C)C)C1CCCCN1C(N)=O (stereo not drawn) | -2 | 0.27 |
| O=C(NCc1cccc(C(=O)N2CCCC2)c1)C1CC1c1ccco1 (stereo not drawn) | -9 | 1.23 |

| SMILES | % Inhibition [%] | Z score |
| --- | --- | --- |
| N#Cc1ccc(Cl)c(S(=O)(=O)N2CCO[C@H](C3CC3)C2)c1 | -9 | 1.72 |
| COc1ccccc1CNC(=O)[C@]1(C)Cn2nc(-c3ccccc3)cc2C(=O)N1c1cccc(C)c1C | -3 | 0.46 |
| COc1ncnc(C)c1-c1cccc(C(=O)NC[C@@]2(C)CCCO2)c1 | 4 | -0.76 |
| O=C(NCCc1nc2c(c(C(F)(F)F)n1)COCC2)c1ccsc1 | -8 | 1.61 |
| O=C(NC1CC1)C1Cc2cc(C(F)(F)F)ccc2N2CCN(Cc3ccccc3)CC12 (stereo not drawn) | 4 | -0.49 |
| COc1ccccc1-c1nnc([C@H]2CCN(C3CCCCC3)C2)o1 | -7 | 1.08 |
| CCN(c1ccccc1)S(=O)(=O)c1cc(Br)cnc1N | -11 | 2.35 |
| Cc1ccc(-c2ccc(CCC(=O)NCC3CC3)n2-c2ccc(CC#N)cc2)c(C)c1 | -12 | 1.16 |
| COc1nc(NC(Cc2ccccn2)[C@H]2C[C@H](O)C2)ncc1F (stereo partly drawn) | 0 | -0.02 |
| FC(F)(F)C1CC(NCc2ncc[nH]2)C1 (stereo not drawn) | -6 | 0.7 |
| Cc1ccc(NC(=O)N2C[C@@H]3CCCN3c3ccccc32)c(C)c1 | -3 | 0.42 |
| Cc1nc(-c2ccccc2)ncc1C(=O)N1CC[C@H](CS(N)(=O)=O)C1 | -4 | 0.78 |
| CC1(C)CN(C(=O)Cc2cccc(Br)c2)CC[S@@+]1[O-] | 30 | -3.34 |
| Cc1nn(Cc2ccccc2)c2nc(-c3nn(C)cc3Cl)[nH]c12 | 0 | 0.02 |
| CS(=O)(=O)N1C[C@H]2CC[C@@H](C1)N(C(=O)c1onc3c1CCCC3)C2 | -19 | 2.58 |
| COc1ccc(CC[C@H](C)N2CCC(=O)N(CCN3CCCCC3)CC2)cc1 | 2 | -0.23 |
| CN1C[C@@]2(CCN(C(=O)CC3CCCC3)C2)OCC1=O | 3 | -0.48 |
| Cc1cc2ncnc(N3CCC(Cn4cnc(C)c(C)c4=O)CC3)c2[nH]1 | 1 | -0.17 |
| O=C(c1ccoc1)N1CC(Cn2ccnn2)C1 | -4 | 0.86 |
| COCCNC(=O)c1ccc(CC2CCN(C(=O)c3cccn3C)CC2)cc1 | -4 | 0.54 |
| O=C(c1cc[n+]([O-])cc1)N1CCO[C@H](c2ccccc2)C1 | -36 | 4.19 |

| SMILES | % Inhibition [%] | Z score |
| --- | --- | --- |
| O=C(c1cc(C2CC2)no1)N1CC[C@H](Oc2ccc(Cl)c(Cl)c2)C1 | 7 | -0.9 |
| CC(C)C(C)(NCC1CCN1C(=O)OC(C)(C)C)C(N)=O (stereo not drawn) | -5 | 0.8 |
| CNc1nc(C(=O)NCc2nccn2C(C)C)cs1 | -14 | 1.99 |
| COCCn1cc2c(n1)[C@@H](Nc1ccnc(C3CC3)n1)CCC2 | 7 | -0.92 |
| CC(C)c1nnc(NC(=O)c2cccc(N(C)C)c2)s1 | 32 | -3.68 |
| CC1=N[C@H]2CC(=O)NN2C(C)=C1CCC(=O)NCCOc1ccccc1F | -6 | 0.74 |
| Cc1c(NC(=O)CN(C)Cc2cnc3ccccc3c2)cnn1C | -11 | 1.76 |
| CC(C)Oc1ccc2c(NC(=O)[C@@H](N)CO)nn(Cc3ccccc3)c2c1 | 2 | -0.39 |
| Cc1ncc(S(=O)(=O)N2CCC[C@H](n3ccnn3)C2)s1 | 3 | -0.42 |
| Cc1nc(-c2ccco2)ccc1C(=O)N[C@H]1CCC(=O)N(C)C1 | -6 | 0.84 |
| C[C@@H](c1ccccn1)N(Cc1ccccc1)C(=O)c1cnn(C)c1 | -2 | 0.18 |
| O=C(CCn1c(=O)[nH]c2ccccc21)N1C[C@@H]2[C@@H]3CC[C@@H](C3)[C@@H]2C1 | -11 | 1.43 |
| CC1=C(C)CC(C(=O)N2CCN(c3cccc(C(F)(F)F)c3)CC2)C(C(=O)O)C1 (stereo not drawn) | -1 | 0.17 |
| Cc1noc(CN(C)CC(=O)N2CCCC2)n1 | 1 | -0.11 |
| COc1ccc(C(F)(F)C(=O)NC(C)C2CN(C)CCO2)cc1 (stereo not drawn) | 0 | -0.03 |
| CC(C)n1cc(NC(=O)N(C)[C@@H](C)CC#N)cn1 | 6 | -0.73 |
| Nc1ncnc(NC[C@H]2CCN(c3ccccc3)C2)c1Cl | -13 | 1.37 |
| CCc1c(C)sc(NC(=O)c2cccc(-n3cnnn3)c2)c1C#N | -6 | 0.72 |
| Cc1c(-c2noc(C(=O)NC3CCCCCC3)n2)oc2c(C)cccc12 | -7 | 1.07 |
| Cc1cc(F)cc(C(=O)NS(=O)(=O)CC(C)C)c1 | 0 | -0.02 |
| Cc1ccnc(-n2cccc2-c2cc(-c3cn(C)nc3C)nc(N)c2C#N)c1 | -10 | 1.3 |
